Among all 310,000 compounds or so, about 2,200 (0.71%) showed an effect of 50% or more. The effect is printed as a negative number. This is one part of the list.
biological target: human ether-à-go-go-related gene (hERG) potassium channel (human, UniProt Q12809); test: primary screen, population patch clamp on CHO cells stably expressing hERG
Sequence (Q12809 whole entry, looked up): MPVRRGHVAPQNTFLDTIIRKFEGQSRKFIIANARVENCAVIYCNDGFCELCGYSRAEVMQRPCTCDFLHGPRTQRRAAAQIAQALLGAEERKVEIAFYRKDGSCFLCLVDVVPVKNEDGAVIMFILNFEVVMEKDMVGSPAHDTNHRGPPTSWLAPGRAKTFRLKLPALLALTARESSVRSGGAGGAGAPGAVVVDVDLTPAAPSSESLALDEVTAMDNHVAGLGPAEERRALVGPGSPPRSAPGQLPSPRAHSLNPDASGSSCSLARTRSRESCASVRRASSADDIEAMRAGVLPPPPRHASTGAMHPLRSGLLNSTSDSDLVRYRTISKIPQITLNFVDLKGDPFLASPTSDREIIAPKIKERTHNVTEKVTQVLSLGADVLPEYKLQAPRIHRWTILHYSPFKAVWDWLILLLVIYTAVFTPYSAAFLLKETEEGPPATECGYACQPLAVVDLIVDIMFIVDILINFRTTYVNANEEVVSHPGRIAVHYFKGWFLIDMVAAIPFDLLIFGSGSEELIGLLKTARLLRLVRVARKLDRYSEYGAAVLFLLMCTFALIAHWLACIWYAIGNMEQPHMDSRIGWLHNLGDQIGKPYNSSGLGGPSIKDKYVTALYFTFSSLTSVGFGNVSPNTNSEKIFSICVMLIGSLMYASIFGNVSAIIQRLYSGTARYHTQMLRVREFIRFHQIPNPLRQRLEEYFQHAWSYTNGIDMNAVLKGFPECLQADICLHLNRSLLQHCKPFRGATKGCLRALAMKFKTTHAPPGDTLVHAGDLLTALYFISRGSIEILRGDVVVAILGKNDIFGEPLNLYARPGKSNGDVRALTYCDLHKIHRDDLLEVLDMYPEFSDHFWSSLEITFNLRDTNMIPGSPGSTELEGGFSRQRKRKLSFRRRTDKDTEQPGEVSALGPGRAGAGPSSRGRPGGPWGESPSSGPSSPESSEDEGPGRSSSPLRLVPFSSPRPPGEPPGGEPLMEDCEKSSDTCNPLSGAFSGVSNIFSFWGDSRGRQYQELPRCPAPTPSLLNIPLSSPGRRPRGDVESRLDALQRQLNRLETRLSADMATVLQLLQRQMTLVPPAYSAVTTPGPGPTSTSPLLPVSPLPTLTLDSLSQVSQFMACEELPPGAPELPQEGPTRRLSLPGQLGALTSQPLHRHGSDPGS

SMILES	hERG current change (%, negative = inhibition) at 1uM [%]
N#Cc1ccc(OCC(=O)N/N=C/C2CC=CCC2)cc1 (stereo not shown)	9.88
CN(NC(=O)Nc1ccccc1)c1cnn(C)c(=O)c1Cl	7.29
Cn1c(=O)c2c(SCC(=O)Nc3cccc(F)c3)nc(-c3ccco3)nc2n(C)c1=O	6.85
COc1cc2c(C(=O)N3CCN(c4cccc(Cl)c4)CC3)cn(CC(C)C)c(=O)c2cc1OC	-5.96
COc1ccc(-c2csc(NC(=O)CCCc3nc4ccccc4c(=O)[nH]3)n2)cc1OC	5.14
O=S(=O)(NC1CCCCC1Nc1ccc(Cl)cc1)c1ccccc1 (stereo not shown)	20.4
Cc1ccc(N(CCC(=O)Nc2nnc(C3CC3)s2)S(=O)(=O)c2ccccc2)cc1	-2.13
COc1ccccc1-c1nc(C#N)c(N2CCN(C(c3ccccc3)c3ccccc3)CC2)o1	4.3
O=P(Cc1ccccc1O)(c1ccccc1)c1ccccc1	15.5
CC(Oc1ccc2c(-c3ccccc3)cc(=O)oc2c1)C(=O)NCCCn1ccnc1 (stereo not shown)	-14.1
CN(C(=O)c1ccc2c(c1)OCO2)C1(C(=O)NC2CCCC2)CCCCC1	5.78
Cc1ccc(NC(=O)c2cnccn2)nc1	4.96
Nc1cc(Oc2ccc(Cl)cc2Cl)nc(N)n1	3.09
O=C(c1ccc2c(c1)ncn2C1CCCCC1)N1CCC2(CC1)OCCO2	0.618
C=CCOc1c(Cl)cc(/C=N/O)cc1OC	9.51
O=C1CN(C(=O)c2ccc(Br)o2)C(c2ccc(F)cc2)c2cc(Cl)ccc2N1 (stereo not shown)	11.6
Cc1ccc(NC(=O)CSc2nnc(Cn3c(=O)sc4ccccc43)n2C)cc1	10.2
NC(=NC(=O)c1cccc(C(F)(F)F)c1)c1ccc(C(F)(F)F)cn1	3.86
CC(C)CN(C(=O)COC(=O)c1c(Cl)ccc(Cl)c1Cl)C1CCS(=O)(=O)C1 (stereo not shown)	5.48
COCc1cc(C)nc(SCC(=O)Nc2cc(C(F)(F)F)ccc2N2CCOCC2)c1C#N	-8.37
COc1cccc(N2CCN(C3CC(=O)N(c4ccc(C)c(Cl)c4)C3=O)CC2)c1 (stereo not shown)	-0.815
CCOC(=O)NC(=S)Nc1ccc(C(C)(C)C)cc1Br	12

SMILES	hERG current change (%, negative = inhibition) at 1uM [%]
CCc1ccc(C(O)(CNCc2ccccc2)c2ccccc2)cc1 (stereo not shown)	6
Cc1c(NC(=O)CSc2ccc(Cl)cc2)cccc1-c1nc2ncccc2o1	-3.27
Cc1ccc(S(=O)(=O)CCc2nnc(NC(=O)c3cccs3)s2)cc1	1.33
COc1ccc(Nc2nc(Cl)nc(N3CCN(c4ccc(OC)cc4)CC3)n2)cc1	7.65
C1=C(CCNCC2CC2)CCCC1.Cl	-4.41
CCn1c(CNC(=O)c2ccccc2)nc2ccccc21	6.8
COc1cc(OC)c(/C=N/NC(=O)c2ccncc2)cc1Br	12.2
O=C(O)c1ccc(F)c(S(=O)(=O)Nc2ccccc2)c1	1.03
COC(=O)CCCCC(=O)C1C(=O)CC(C)(C)C(C(=O)OC)C1=O (stereo not shown)	7.77
CNS(=O)(=O)c1ccc(NC(=O)c2csc(C)c2)cc1	10.6
CN(C(=O)/C=C/c1ccccc1)C1CCCCC1	11.3
CCN(C(=O)c1ccc(=O)[nH]c1)c1c(N)n(Cc2ccccc2)c(=O)[nH]c1=O	6.12
COc1ccc(N2C(=O)C(CN3CCN(C)CC3)C2c2ccccc2)cc1 (stereo not shown)	-19
Cc1cc(C(=O)OCC(=O)Nc2ccccc2C)c(C)o1	7.9
CCC(C)Nc1nc(Cl)nc(NCCOc2ccccc2)n1 (stereo not shown)	5.41
O=C(c1cc(-c2cccc(O)c2)on1)N1CCOCC1	20
COc1cccc(-c2nc(-c3ccccc3)no2)c1	9.7
CCOc1ccccc1CN(CCc1ccc2c(c1)OCO2)Cc1ccccn1	-13.6
O=C(Cn1nc(-c2ccc(Cl)cc2)ccc1=O)NCCN1CCOCC1	11.7
CCOC(=O)C1CCCN(CCCc2ccccc2)C1.Cl (stereo not shown)	-14.7
CC1CCCC(C)N1/N=C/c1ccc(O)c(O)c1 (stereo not shown)	6.2
